# According to the supplement of paper PMC8728848:
# This is one part of the list.
# B1: AFCNVH (Aspergillus fumigatus) (protein)
# chain: MSLRGFHTTCDTIVLKDKHILSSRCKRPDGTYSFSEIDLNDCLGNNNGKFVWGGESFVDSASQVNLALEGGEGRPMLHAQLNDWHGSVQSASVNLGECIQNEAGGLEYMHC
# How the values were obtained:
# Assay in all cases: glycan array binding signal (z-score within array); higher = stronger binding
# Details in all cases: glycan notation: IUPAC condensed, linker removed
# Neu5Ac(a2-3)GalNAc = target: Neu5Ac(a2-3)GalNAc
# In short: (§1)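 The binding signal is a Z-score computed within each array. Data were drawn from 3228 arrays in the Consortium for Functional Glycomics database, restricted to those with a known protein sequence. Scores were averaged over arrays of the same protein sequence at different concentrations or buffers, and over linkers, and negative values can be taken as non-binding.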
# [1] = target: Neu5Ac(a2-3)GalNAc(b1-4)GlcNAc
# In short: as §1
# [2] = target: Neu5Ac(a2-3)[GalNAc(b1-4)]Gal(b1-4)Glc
# In short: as §1
# [3] = target: Neu5Ac(a2-3)[GalNAc(b1-4)]Gal(b1-4)GlcNAc
# In short: as §1
# [4] = target: Neu5Ac(a2-3)[GalNAc(b1-4)]Gal(b1-4)GlcNAc(b1-3)GalNAc
# In short: as §1
# [5] = target: Neu5Ac(a2-3)[Neu5Ac(a2-6)]GalNAc
# In short: as §1
# Neu5Ac(a2-6)Gal = target: Neu5Ac(a2-6)Gal
# In short: as §1
# [6] = target: Neu5Ac(a2-6)Gal(b1-3)GlcNAc(b1-3)[Gal(b1-4)GlcNAc(b1-6)]Gal(b1-4)Glc
# In short: as §1
# Neu5Ac(a2-6)Gal(b1-4)Glc = target: Neu5Ac(a2-6)Gal(b1-4)Glc
# In short: as §1
# [7] = target: Neu5Ac(a2-6)Gal(b1-4)GlcNAc
# In short: as §1
# [8] = target: Neu5Ac(a2-6)Gal(b1-4)GlcNAc(b1-2)Man
# In short: as §1
# [9] = target: Neu5Ac(a2-6)Gal(b1-4)GlcNAc(b1-2)Man(a1-3)Man(b1-4)GlcNAc(b1-4)GlcNAc
# In short: as §1
# [10] = target: Neu5Ac(a2-6)Gal(b1-4)GlcNAc(b1-2)Man(a1-3)[Gal(b1-4)GlcNAc(b1-2)Man(a1-6)]Man(b1-4)GlcNAc(b1-4)GlcNAc
# In short: as §1
# [11] = target: Neu5Ac(a2-6)Gal(b1-4)GlcNAc(b1-2)Man(a1-3)[GlcNAc(b1-2)Man(a1-6)]Man(b1-4)GlcNAc(b1-4)GlcNAc
# In short: as §1
# [12] = target: Neu5Ac(a2-6)Gal(b1-4)GlcNAc(b1-2)Man(a1-3)[GlcNAc(b1-4)][Neu5Ac(a2-6)Gal(b1-4)GlcNAc(b1-2)Man(a1-6)]Man(b1-4)GlcNAc(b1-4)GlcNAc
# In short: as §1
# [13] = target: Neu5Ac(a2-6)Gal(b1-4)GlcNAc(b1-2)Man(a1-3)[Man(a1-6)]Man(b1-4)GlcNAc(b1-4)GlcNAc
# In short: as §1
# [14] = target: Neu5Ac(a2-6)Gal(b1-4)GlcNAc(b1-2)Man(a1-3)[Neu5Ac(a2-3)Gal(b1-4)GlcNAc(b1-2)Man(a1-6)]Man(b1-4)GlcNAc(b1-4)GlcNAc
# In short: as §1
# [15] = target: Neu5Ac(a2-6)Gal(b1-4)GlcNAc(b1-2)Man(a1-3)[Neu5Ac(a2-6)Gal(b1-4)GlcNAc(b1-2)Man(a1-6)]Man(b1-4)GlcNAc(b1-4)GlcNAc
# In short: as §1
# [16] = target: Neu5Ac(a2-6)Gal(b1-4)GlcNAc(b1-2)Man(a1-3)[Neu5Ac(a2-6)Gal(b1-4)GlcNAc(b1-2)Man(a1-6)]Man(b1-4)GlcNAc(b1-4)[Fuc(a1-6)]GlcNAc
# In short: as §1
# [17] = target: Neu5Ac(a2-6)Gal(b1-4)GlcNAc(b1-2)Man(a1-6)Man(b1-4)GlcNAc(b1-4)GlcNAc
# In short: as §1
# [18] = target: Neu5Ac(a2-6)Gal(b1-4)GlcNAc(b1-2)Man(a1-6)[Gal(b1-4)GlcNAc(b1-2)Man(a1-3)]Man(b1-4)GlcNAc(b1-4)GlcNAc
# In short: as §1
# [19] = target: Neu5Ac(a2-6)Gal(b1-4)GlcNAc(b1-2)Man(a1-6)[GlcNAc(b1-2)Man(a1-3)]Man(b1-4)GlcNAc(b1-4)GlcNAc
# In short: as §1
# [20] = target: Neu5Ac(a2-6)Gal(b1-4)GlcNAc(b1-2)Man(a1-6)[Man(a1-3)]Man(b1-4)GlcNAc(b1-4)GlcNAc
# In short: as §1
# [21] = target: Neu5Ac(a2-6)Gal(b1-4)GlcNAc(b1-2)[Neu5Ac(a2-6)Gal(b1-4)GlcNAc(b1-4)]Man(a1-3)[GlcNAc(b1-4)][Neu5Ac(a2-6)Gal(b1-4)GlcNAc(b1-2)[Neu5Ac(a2-6)Gal(b1-4)GlcNAc(b1-6)]Man(a1-6)]Man(b1-4)GlcNAc(b1-4)GlcNAc
# In short: as §1
# [22] = target: Neu5Ac(a2-6)Gal(b1-4)GlcNAc(b1-2)[Neu5Ac(a2-6)Gal(b1-4)GlcNAc(b1-4)]Man(a1-3)[GlcNAc(b1-4)][Neu5Ac(a2-6)Gal(b1-4)GlcNAc(b1-4)Man(a1-6)]Man(b1-4)GlcNAc(b1-4)GlcNAc
# In short: as §1
# [23] = target: Neu5Ac(a2-6)Gal(b1-4)GlcNAc(b1-2)[Neu5Ac(a2-6)Gal(b1-4)GlcNAc(b1-6)]Man(a1-6)[Neu5Ac(a2-6)Gal(b1-4)GlcNAc(b1-2)Man(a1-3)][GlcNAc(b1-4)]Man(b1-4)GlcNAc(b1-4)GlcNAc
# In short: as §1
# [24] = target: Neu5Ac(a2-6)Gal(b1-4)GlcNAc(b1-3)Gal(b1-3)GlcNAc
# In short: as §1
# [25] = target: Neu5Ac(a2-6)Gal(b1-4)GlcNAc(b1-3)Gal(b1-4)GlcNAc
# In short: as §1
# [26] = target: Neu5Ac(a2-6)Gal(b1-4)GlcNAc(b1-3)Gal(b1-4)GlcNAc(b1-2)Man(a1-3)[Neu5Ac(a2-6)Gal(b1-4)GlcNAc(b1-3)Gal(b1-4)GlcNAc(b1-2)Man(a1-6)]GalNAc
# In short: as §1
# [27] = target: Neu5Ac(a2-6)Gal(b1-4)GlcNAc(b1-3)Gal(b1-4)GlcNAc(b1-3)Gal(b1-4)GlcNAc
# In short: as §1
# [28] = target: Neu5Ac(a2-6)Gal(b1-4)GlcNAc(b1-3)Gal(b1-4)GlcNAc(b1-3)Gal(b1-4)GlcNAc(b1-2)Man(a1-3)[Neu5Ac(a2-6)Gal(b1-4)GlcNAc(b1-3)Gal(b1-4)GlcNAc(b1-3)Gal(b1-4)GlcNAc(b1-2)Man(a1-6)]GalNAc
# In short: as §1
# [29] = target: Neu5Ac(a2-6)Gal(b1-4)GlcNAc(b1-3)Gal(b1-4)GlcNAc(b1-3)GalNAc
# In short: as §1
# [30] = target: Neu5Ac(a2-6)Gal(b1-4)GlcNAc(b1-3)Gal(b1-4)GlcNAc(b1-3)[Neu5Ac(a2-6)Gal(b1-4)GlcNAc(b1-3)Gal(b1-4)GlcNAc(b1-6)]GalNAc
# In short: as §1
# [31] = target: Neu5Ac(a2-6)Gal(b1-4)GlcNAc(b1-3)Gal(b1-4)GlcNAc(b1-6)[Gal(b1-3)]GalNAc
# In short: as §1
# [32] = target: Neu5Ac(a2-6)Gal(b1-4)GlcNAc(b1-3)Gal(b1-4)[Fuc(a1-3)]GlcNAc(b1-3)Gal(b1-4)[Fuc(a1-3)]GlcNAc
# In short: as §1
# [33] = target: Neu5Ac(a2-6)Gal(b1-4)GlcNAc(b1-3)GalNAc
# In short: as §1
# [34] = target: Neu5Ac(a2-6)Gal(b1-4)GlcNAc(b1-3)[Neu5Ac(a2-6)Gal(b1-4)GlcNAc(b1-6)]GalNAc
# In short: as §1
# [35] = target: Neu5Ac(a2-6)Gal(b1-4)GlcNAc(b1-6)GalNAc
# In short: as §1
binder,measurement,setting,value
B1,glycan array binding signal (z-score),Neu5Ac(a2-3)GalNAc,-0.339
same,glycan array binding signal (z-score),[1],-0.24
same,glycan array binding signal (z-score),[2],-0.476
same,glycan array binding signal (z-score),[3],-0.462
same,glycan array binding signal (z-score),[4],-0.458
same,glycan array binding signal (z-score),[5],-0.677
same,glycan array binding signal (z-score),Neu5Ac(a2-6)Gal,-0.55
same,glycan array binding signal (z-score),[6],-0.538
same,glycan array binding signal (z-score),Neu5Ac(a2-6)Gal(b1-4)Glc,-0.576
same,glycan array binding signal (z-score),[7],-0.569
same,glycan array binding signal (z-score),[8],-0.324
same,glycan array binding signal (z-score),[9],0.695
same,glycan array binding signal (z-score),[10],-0.299
same,glycan array binding signal (z-score),[11],-0.339
same,glycan array binding signal (z-score),[12],-0.066
same,glycan array binding signal (z-score),[13],-0.332
same,glycan array binding signal (z-score),[14],-0.385
same,glycan array binding signal (z-score),[15],0.006
same,glycan array binding signal (z-score),[16],-0.201
same,glycan array binding signal (z-score),[17],-0.343
same,glycan array binding signal (z-score),[18],-0.371
same,glycan array binding signal (z-score),[19],-0.269
same,glycan array binding signal (z-score),[20],-0.287
same,glycan array binding signal (z-score),[21],-0.842
same,glycan array binding signal (z-score),[22],-0.986
same,glycan array binding signal (z-score),[23],-0.483
same,glycan array binding signal (z-score),[24],-0.318
same,glycan array binding signal (z-score),[25],-0.452
same,glycan array binding signal (z-score),[26],-0.303
same,glycan array binding signal (z-score),[27],-0.208
same,glycan array binding signal (z-score),[28],-0.157
same,glycan array binding signal (z-score),[29],-0.684
same,glycan array binding signal (z-score),[30],-0.26
same,glycan array binding signal (z-score),[31],-0.506
same,glycan array binding signal (z-score),[32],-0.063
same,glycan array binding signal (z-score),[33],-0.641
same,glycan array binding signal (z-score),[34],-0.368
same,glycan array binding signal (z-score),[35],-0.366
